According to the supplement of paper PMC8285479:
Counter-ions that a name gives are not always drawn. ± gives the standard deviation of the averaged measurements. Whole data set: some 1,900 compounds, median “normalised cell viability (NPI; 0 = phenylarsine oxide control, 1 = DMSO control)” near 1, cut for the lowest 2% near 0.039. The list shows a part of the results.

System: NCI-H1944
Assay: normalised cell viability (NPI; 0 = phenylarsine oxide control, 1 = DMSO control) (fraction of DMSO control); NCI-H1944 is a non-small cell lung cancer line; higher = more viable cells (less compound toxicity)
Settings: 6 days
[1] = glucocorticoid arm: hydrocortisone 2.75 uM co-treatment, compound 1 µM
[2] = glucocorticoid arm: hydrocortisone 2.75 uM co-treatment, compound 5 µM
[3] = glucocorticoid arm: hydrocortisone 2.75 uM pre-treated 2 days and continued, compound 1 µM
[4] = glucocorticoid arm: hydrocortisone 2.75 uM pre-treated 2 days and continued, compound 5 µM
[5] = glucocorticoid arm: vehicle, compound 1 µM
[6] = glucocorticoid arm: vehicle, compound 5 µM
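Note: CTB read-out in 384-well plates, mean of triplicate wells, normalised per plate against 1 µM phenylarsine oxide and 0.1% DMSO, compounds added 24 h after seeding.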

Row | Compound | normalised cell viability [1] | normalised cell viability [2] | normalised cell viability [3] | normalised cell viability [4] | normalised cell viability [5] | normalised cell viability [6]
1 | N[C@@H](CC(=O)N1CCn2c(nnc2C(F)(F)F)C1)Cc1cc(F)c(F)cc1F [Sitagliptin phosphate monohydrate] | 0.9863 ± 0.0025 | 1.013 ± 0.0058 | 0.9993 ± 0.0011 | 1.01 ± 0.019 | 0.9977 ± 0.004 | 1.007 ± 0.0058
2 | CC1(C)C(=O)N(CCN2CCC(C(=O)c3ccc(F)cc3)CC2)c2ccccc21 [LY-310,762 hydrochloride] | 0.9993 ± 0.0011 | 0.965 ± 0.02 | 1.002 ± 0.0068 | 1.05 ± 0.074 | 0.988 ± 0.01 | 1.01 ± 0.02
3 | CC(C)(C)OC(=O)N[C@H]1CCCCC/C=C\[C@@H]2C[C@@]2(C(=O)NS(=O)(=O)C2CC2)NC(=O)[C@@H]2C[C@@H](OC(=O)N3Cc4cccc(F)c4C3)CN2C1=O [Danoprevir] | 0.997 ± 0.011 | 1.02 ± 0.017 | 1 ± 0.024 | 1.03 ± 0.01 | 1.002 ± 0.0076 | 1.007 ± 0.0058
4 | NC(=O)Nc1sc(-c2ccc(F)cc2)cc1C(N)=O | 0.737 ± 0.051 | 0.483 ± 0.002 | 0.8183 ± 0.0025 | 0.621 ± 0.027 | 0.907 ± 0.012 | 0.322 ± 0.015
5 | CCCC(=O)Nc1ccc(OCC(O)CNC(C)C)c(C(C)=O)c1 (centres undefined) [Acebutolol HCl] | 1.01 ± 0.01 | 1.02 ± 0.025 | 0.999 ± 0.028 | 1.03 ± 0.032 | 0.999 ± 0.001 | 0.9927 ± 0.0029
6 | N=C(N)N1CCc2ccccc2C1 [Debrisoquin sulfate] | 0.9857 ± 0.008 | 0.937 ± 0.015 | 0.991 ± 0.0061 | 0.951 ± 0.011 | 0.9887 ± 0.0057 | 0.974 ± 0.011
7 | O=C(O)Cc1ccc(O)c(O)c1 [3,4-Dihydroxyphenylacetic acid] | 1.007 ± 0.0058 | 0.991 ± 0.0046 | 1.002 ± 0.0076 | 0.989 ± 0.011 | 0.987 ± 0.0052 | 0.9853 ± 0.0038
8 | CCCCC1C(=O)N(c2ccccc2)N(c2ccccc2)C1=O [Phenylbutazone] | 0.984 ± 0.0044 | 0.998 ± 0.02 | 1.04 ± 0.07 | 0.9653 ± 0.0055 | 0.994 ± 0.0072 | 0.987 ± 0.012
9 | N=C(N)SCCN [2-(2-Aminoethyl)isothiourea dihydrobromide] | 0.9887 ± 0.0042 | 1 ± 0.019 | 1.006 ± 0.0063 | 1.004 ± 0.0085 | 0.9967 ± 0.0035 | 1.003 ± 0.0058
10 | COc1cc2ncnc(Nc3ccc(F)c(Cl)c3)c2cc1NC(=O)/C=C/CN1CCCCC1 | 0.922 ± 0.029 | 0.874 ± 0.021 | 0.94 ± 0.016 | 0.935 ± 0.011 | 0.803 ± 0.0092 | 0.798 ± 0.025
11 | NS(=O)(=O)C#Cc1ccccc1 [Pifithrin-mu] | 1.02 ± 0.01 | 1.04 ± 0.015 | 0.875 ± 0.28 | 1.02 ± 0.011 | 1.027 ± 0.0058 | 0.738 ± 0.027
12 | Nc1c(S(=O)(=O)O)cc(Nc2ccc(Nc3nc(Cl)nc(Nc4cccc(S(=O)(=O)O)c4)n3)c(S(=O)(=O)O)c2)c2c1C(=O)c1ccccc1C2=O [Reactive Blue 2] | 1 ± 0.01 | 1.02 ± 0.01 | 1.02 ± 0.021 | 0.987 ± 0.021 | 0.9857 ± 0.0023 | 0.982 ± 0.0036
13 | CNCC[C@@H](Oc1ccccc1C)c1ccccc1 [Atomoxetine HCl] | 1.001 ± 0.0083 | 1.03 ± 0.015 | 0.99 ± 0.044 | 1.04 ± 0.01 | 1.002 ± 0.0072 | 0.997 ± 0.0027
14 | CNCC[C@@H](Oc1ccccc1C)c1ccccc1 [Tomoxetine hydrochloride] | 0.994 ± 0.0052 | 1.01 ± 0.019 | 1.03 ± 0.021 | 1.017 ± 0.0058 | 0.9977 ± 0.0021 | 0.991 ± 0.0044
